Laboratory results published in the supplement of paper PMC11417369.
± gives the standard deviation of the averaged measurements. The list shows a part of the results.

Tested on: PfAP2-LT AP2 domain (GST-tagged)
Assay: gcPBM binding intensity (ln(normalized median fluorescence intensity)); higher = stronger DNA binding
Summary of the method: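 The highest Masliner-normalised natural-log median intensity across replicate spots of either probe orientation is reported as binding intensity. GST-tagged P. falciparum DNA-binding domains expressed in E. coli were applied for 1 h to an Agilent 4 × 180k array of primer-extended double-stranded 36-bp intergenic genomic probes plus negative controls, and bound protein was detected with Alexa488 anti-GST antibody and scanned at 488 nm.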

Row | Sequence | gcPBM binding intensity (ln)
1 | ATAAGCATACATATTACACACATATAACATCTATAT [CACACA_site7219] | 9.21 ± 0.37
2 | AAATTATTAAAAAAGTGTACATATTTTTATAATACC [XGTACX_site5610] | 8.56 ± 0.4
3 | TTAATCAAATTACTATGTACATAAAACATATAAGAA [XGTACX_site381] | 8.73 ± 0.43
4 | TATTTTTTTTCAAAAAAGTTTATTTAGAACTAAATA [XGTACX_negctrl_site487] | 7.86 ± 0.4
5 | AAAAAAAAAAAAAGTACACACATACAGATAAATATA [CACACA_site5067] | 9.16 ± 0.48
6 | ATAAATTGATTCAACACACACATATGTAGGAAGTTA [CACACA_site3253] | 9.2 ± 0.42
7 | TTTTTTAAATTGGTAGTGCAATATGATTGAACAAAA [GTGCAC_site9715] | 8.29 ± 0.28
8 | AATATATCTTATTTAACACACACAAAGAAAATAGAA [CACACA_site9242] | 9.19 ± 0.38
9 | TGTTATCAGAAAGCACGTACATATAATTATATATTC [XGTACX_site4188] | 8.83 ± 0.41
10 | AATACAATAAAAAAAAGTACACATGTATAAAAAATT [XGTACX_site8270] | 9.46 ± 0.64
11 | TATATATATATACATACATGCATATATATATATATA [TGCATGCA_site513] | 9.45 ± 0.3
12 | GAATATGTAAAGAAAGGTACACATGAAAATATGTGT [XGTACX_site446] | 8.94 ± 0.45
13 | ATGAATTAATCTAATCGTACAATAAGCATTATTATA [XGTACX_site2571] | 8.57 ± 0.38
14 | TGTACCTACAAAATATGATATATTTTTATAAATTGT [XGTACX_negctrl_site498] | 8.51 ± 0.47
15 | TAGAAAATCAGTTAAACACACACATAAAAAAAAAAA [CACACA_site8933] | 9.23 ± 0.49
16 | TATATAATATATATATGTACACATTTGCAAACAATG [XGTACX_site6941] | 8.82 ± 0.34
17 | TTCTTATTTGTACTAGTGCAATAGAAAATAAATAAA [GTGCAC_site9731] | 8.33 ± 0.37
18 | ATTTTTTTTTTTTATAGTGGATCCACATTTGCCATT [CACACA_negctrl_site1284] | 8.93 ± 0.57
19 | ATATATTTTAATTGTTGTACATATTAAATAAATAGG [XGTACX_site2311] | 8.53 ± 0.41
20 | TATATTTTATATATGGTGCAACTTTTATTTAAATAA | 8.3 ± 0.46
21 | ACATAAATATAAACGTGTACATATATAAATATATAT [XGTACX_site7293] | 9.06 ± 0.4
22 | CATATATAAAAAAACACACACATATATATATATATA [CACACA_site1195] | 9.82 ± 0.042
23 | AAGAAAGACATTACGTGTACCAAACAACCTACCAAC [XGTACX_site4219] | 9.35 ± 0.4

Row | Sequence | gcPBM binding intensity (ln)
24 | AAAATTAAACTCACACCACACACAAAAAAAAAAAAA [CACACA_site8131] | 9.35 ± 0.49
25 | TGTTTTATCTTATATGCACACGATAAAAAAAAAAAA [CACACA_site2674] | 8.63 ± 0.45
26 | ATGTATATGTCTATATGTACTTATATTTTATTTTTT [XGTACX_site5902] | 8.77 ± 0.35
27 | TTACAAGTAAAAGGTACACACATTATAAATACAAAT [CACACA_site4752] | 9.19 ± 0.45
28 | CATTATTCATTTTGGATGCACTGACAGAAAAATGGT | 8.69 ± 0.43
29 | ATGCTCAGGAAAACATGTACAAAATTATTTGTTATA [XGTACX_site4306] | 8.69 ± 0.4
30 | ATATGACATAAAACATGTACATGTTCATAAATATAT [XGTACX_site1923] | 9.06 ± 0.44
31 | TGAGTACACAATAATACATGCAATTCCTATGAATAT [TGCATGCA_site851] | 8.97 ± 0.43
32 | ATAAATATTAAAAGTACACACAGATACACTAATTAT [CACACA_site1808] | 9.16 ± 0.36
33 | ATTTACATAATAAAATGTACATTTATAAATATTATA [XGTACX_site1901] | 8.6 ± 0.43
34 | TACACTTTTTATGAAGTGCATGTATAGCTCTTAAAA [GTGCAC_site9595] | 8.37 ± 0.33
35 | TGCAGTCTGGAGAAACGTACACAGTATCTGGTAACC [XGTACX_site2543] | 8.8 ± 0.47
36 | TTTTGTGCTTAAAAAAGTACAAAATATAAAAAAAAT [XGTACX_site7876] | 8.56 ± 0.38
37 | CCCACAGACGGACACACACACACACCGACACATATA [CACACA_site4356] | 10 ± 0.26
38 | AAAATTGAACCTGACAAGGTATTTTATTATTTATTA [TGCATGCA_negctrl_site181] | 8.36 ± 0.48
39 | TTCTATTTTAATATCTGTACATAATAAAGATCCATT [XGTACX_site1142] | 8.46 ± 0.49
40 | AGTTTTTATAAAAATAGTACATATTTATTAATCTGT [XGTACX_site5881] | 8.57 ± 0.38
41 | AATTTAATATAATGCACACATAAAACAAAAACAAAA [CACACA_site529] | 9.02 ± 0.4
42 | TATTATCGTTCTCATACACACAAAATATACATACAC [CACACA_site2643] | 9.12 ± 0.4
43 | TACGTAAATGTGTGTGTGCACGTTATATATTAATAT [GTGCAC_site9976] | 9.54 ± 0.24
44 | CATTTTTTATTTCCTTGTACGAATAAAATATATTTA [XGTACX_site6844] | 8.43 ± 0.52
45 | AATACACTAAACAAAAGTACAAAAATATTCTACAAA [XGTACX_site5162] | 8.97 ± 0.42
46 | ATGGCCTCATTTGGGACACACAACATAAAATATATA [CACACA_site753] | 8.84 ± 0.59

Row | Sequence | gcPBM binding intensity (ln)
47 | ATAAACATATAAAAAGTGCATATTCATATATCTACT | 8.82 ± 0.39
48 | TGTTAATTATAAATTTGTACTTATTTTTACAAAATA [XGTACX_site6598] | 8.51 ± 0.49
49 | AAATATATTTTATGTACACACAAAATTAAGGGATAT [CACACA_site4881] | 9.06 ± 0.49
50 | TTATAATAATATAATACATGCATATATATTTAAATA [TGCATGCA_site903] | 8.53 ± 0.43
51 | TCACTATAATAATTTACACACATTTTAAGAAAATGT [CACACA_site3530] | 9.02 ± 0.42
52 | GAATATTAATTCATACGTACTTATATATAAGTATAT [XGTACX_site3707] | 8.7 ± 0.41
53 | AAAATGAATAAAAATACACACATATCTGTTATTCTC [CACACA_site5474] | 8.97 ± 0.45
54 | TATAAAAATGGGCACACACACACATATATATATTTA [CACACA_site1527] | 9.835 ± 0.05
55 | AACTTAAAAAATAAATGTACATAAATATAAACATAT [XGTACX_site2987] | 8.88 ± 0.32
56 | AAAAAAAAAAAAATCACACATAATATAGAATATGTA [CACACA_site4993] | 8.53 ± 0.51
57 | ATATATATATATATAACACACGCAAAAAAATTAAAT [CACACA_site8395] | 9.32 ± 0.4
58 | TATTTAAATTTTAAGTGTACATATTTATTTATATCT [XGTACX_site6545] | 8.61 ± 0.58
59 | AAAAAAAAAAAAAACATACACACAATAAAATAGGGG [CACACA_site2398] | 9.32 ± 0.099
60 | ATTTTTTTTTTTTTTTTTTTTTTATTCTTGTAATCT [CACACA_negctrl_site1039] | 8.65 ± 0.64
61 | ATATAATAATAAAGACGTACAAATGTATATATATAC [XGTACX_site3123] | 9.2 ± 0.35
62 | ATGTAAGTTGTGCATTCACACACATATATATATATA [CACACA_site9086] | 9.73 ± 0.28
63 | CCTTTTTATCTTTTTGTGCACAGACCTTTTTTAAAT | 9.48 ± 0.28
64 | TAAAAATTATATATCACACATATATGTCAGTATACA [CACACA_site4624] | 8.87 ± 0.48
65 | ATTTATATGTGGAGCAGTACGCACTCTCACAATTAA [XGTACX_site7252] | 8.7 ± 0.38
66 | TAATATATGTATATATGTACATATAAATGTTATAGA [XGTACX_site2721] | 8.78 ± 0.43
67 | TTGGTATAAAATTATAGTACATAAGGTAAATATAAA [XGTACX_site4698] | 8.74 ± 0.52
68 | GATGTTCATCACTACACACACAAAGAAATATATATA [CACACA_site2684] | 9.42 ± 0.42
69 | AAAGAAAAAAAATATAAAAAATAAAAAATAAAACAA [CACACA_negctrl_site374] | 8.56 ± 0.8

Row | Sequence | gcPBM binding intensity (ln)
70 | TTGTATTTCCTTAGGAGTACACATAAATAAGTAAAT [XGTACX_site6677] | 8.56 ± 0.41
71 | GTAAAATATATAAAATGTACATATATTATATATATA [XGTACX_site489] | 8.77 ± 0.38
72 | CATTTAAAAGATAAAACACACATACTAATAAAAAAC [CACACA_site5417] | 8.98 ± 0.43
73 | TTTCTTTATTAAAATATTTTACATATATAATATACG [TGCATGCA_negctrl_site564] | 8.62 ± 0.54
74 | CTTCTCTTTTTTATCATGCACTTTTTGTATAATAAT [GTGCAC_site9834] | 8.86 ± 0.38
75 | ACATATATTATTATATGTACATATATTAATTATATA [XGTACX_site3400] | 8.66 ± 0.28
76 | ATCATTTTTAAAGGAACACACAAAAAAAATTAAAAT [CACACA_site4878] | 8.72 ± 0.57
77 | ACTCTCTTATATTAAACACACATATATATCTGTATA [CACACA_site5489] | 9.24 ± 0.35
78 | AAAAAATCACGACACACACACACACTAAAAAAAAAA [CACACA_site6792] | 10.1 ± 0.2
79 | ATTTTTTGGAAAAGAAGTACAATGGATTTATACGTT [XGTACX_site891] | 8.55 ± 0.48
80 | ATCAAATAATAGCAAACACACAAAAAATAAAAAAAA [CACACA_site4146] | 9.04 ± 0.47
81 | AATGTTTTTTTTTTTTTTTTTTTTTATTTATTGTTA [CACACA_negctrl_site505] | 8.65 ± 0.47
82 | TAACATATAATATTATGTACATATATACATATATAA [XGTACX_site7467] | 8.58 ± 0.37
83 | TATTTCAATATATACCTTTGCTTTTTTAATATACTT [XGTACX_negctrl_site556] | 8.62 ± 0.53
84 | TCAATATAAATTAGTTGTACAGTTTTTTTTAATTAT [XGTACX_site6358] | 8.55 ± 0.51
85 | AATATAAATAAAAACACACACAATGGTACCTATATA [CACACA_site7688] | 9.3 ± 0.39
86 | TTTAAATAATCTAGGTGTACTTTCCTTTATAAATGT [XGTACX_site7859] | 8.62 ± 0.52
87 | AGAATACATATATGAACACACAGAGTTTTAAAAAAT [CACACA_site2735] | 9.11 ± 0.47
88 | TACAGACAGAAATGCACACACATATATATATATATA [CACACA_site2283] | 10.2
89 | TATTTGTTTGAATTTTTTTTTTTTTTTTTTTATGTG [CACACA_negctrl_site966] | 8.34 ± 0.58
